Laboratory results published in paper PMC10520887.
These are yes or no findings as the source states them, for the method shown. Binding seen in cells or lysates may run through a third protein. Some results given as binding are weak or reduced against the parent protein; the word gives no strength. For part of these data: Tags and fused reporters may be left off the sequences shown. Each block holds one molecule with its values, some of them ahead of it.

The chains behind the UniProt entries cited, without tags or fusion partners. Where a name states a change or a piece, a line headed by the entry shows the natural chain unless it says otherwise.
UniProt B8XX90: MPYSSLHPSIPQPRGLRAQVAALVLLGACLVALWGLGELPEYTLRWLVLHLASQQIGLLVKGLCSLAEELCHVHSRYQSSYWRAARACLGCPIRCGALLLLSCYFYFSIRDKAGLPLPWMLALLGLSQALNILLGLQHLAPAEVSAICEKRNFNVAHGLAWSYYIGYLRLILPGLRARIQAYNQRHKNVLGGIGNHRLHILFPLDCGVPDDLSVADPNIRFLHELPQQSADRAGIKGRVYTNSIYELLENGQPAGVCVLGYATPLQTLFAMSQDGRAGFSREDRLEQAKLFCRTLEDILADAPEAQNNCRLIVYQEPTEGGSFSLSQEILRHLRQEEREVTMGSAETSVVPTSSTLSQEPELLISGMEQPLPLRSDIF

What was measured:
[1] = target: T1, mCherry-pIKKε (porcine IKKε) (porcine) (UniProt M9MMN5); experiment: co-IP; HEK293T cotransfected with the two tagged proteins for 48 h (legends; the methods say 24 h); lysis buffer 50 mM Tris pH 7.2, 150 mM NaCl, 1% sodium deoxycholate, 1% Triton X-100; antibody overnight at 4 °C, protein A/G beads 2 h; co-IP and reverse co-IP; Western blot
T1 sequence: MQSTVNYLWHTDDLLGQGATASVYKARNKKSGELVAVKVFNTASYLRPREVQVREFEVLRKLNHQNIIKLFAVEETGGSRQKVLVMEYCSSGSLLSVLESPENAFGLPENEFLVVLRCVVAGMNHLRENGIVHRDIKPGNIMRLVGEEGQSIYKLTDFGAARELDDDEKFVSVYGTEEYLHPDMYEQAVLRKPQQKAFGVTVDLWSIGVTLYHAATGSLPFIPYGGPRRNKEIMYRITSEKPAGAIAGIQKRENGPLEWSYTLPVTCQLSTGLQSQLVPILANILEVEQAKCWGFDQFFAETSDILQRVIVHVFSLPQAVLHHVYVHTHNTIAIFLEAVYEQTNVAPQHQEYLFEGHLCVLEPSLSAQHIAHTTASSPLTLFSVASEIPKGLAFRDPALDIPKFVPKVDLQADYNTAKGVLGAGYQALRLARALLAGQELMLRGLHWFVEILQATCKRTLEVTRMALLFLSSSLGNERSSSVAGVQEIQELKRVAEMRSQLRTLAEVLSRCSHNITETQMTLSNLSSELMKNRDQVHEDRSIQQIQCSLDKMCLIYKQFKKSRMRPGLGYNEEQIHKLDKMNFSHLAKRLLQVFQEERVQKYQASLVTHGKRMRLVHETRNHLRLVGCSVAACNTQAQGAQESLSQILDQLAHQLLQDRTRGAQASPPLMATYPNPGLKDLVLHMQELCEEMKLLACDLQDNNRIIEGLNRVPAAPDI

[2] = target: T2, pIKKε-Myc (porcine IKKε) (porcine) (UniProt M9MMN5); experiment: as above
T2 sequence: T1 sequence

[3] = target: T3, GFP-pIRF3 (porcine IRF3) (porcine) (UniProt Q764M6); experiment: as above
T3 sequence: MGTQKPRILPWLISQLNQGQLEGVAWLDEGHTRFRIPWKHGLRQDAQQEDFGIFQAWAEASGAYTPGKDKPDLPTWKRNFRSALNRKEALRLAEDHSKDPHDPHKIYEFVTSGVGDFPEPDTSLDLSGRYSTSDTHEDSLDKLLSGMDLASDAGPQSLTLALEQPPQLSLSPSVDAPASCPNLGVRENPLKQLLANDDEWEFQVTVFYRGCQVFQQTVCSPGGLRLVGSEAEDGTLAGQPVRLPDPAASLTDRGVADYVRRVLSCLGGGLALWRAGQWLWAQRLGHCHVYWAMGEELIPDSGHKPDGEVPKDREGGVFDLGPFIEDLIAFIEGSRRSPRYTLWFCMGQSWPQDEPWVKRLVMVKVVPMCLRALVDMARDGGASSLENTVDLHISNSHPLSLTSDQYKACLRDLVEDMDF

[4] = target: T4, pIKKε-GFP (porcine IKKε) (porcine) (UniProt M9MMN5); experiment: as above
T4 sequence: T1 sequence

[5] = target: T1, mCherry-pIKKε (porcine IKKε) (porcine); experiment: co-IP; 293T cotransfected with 0.5 μg GFP-STING, 0.5 μg TBK1-HA and increasing pIKKε (0.5, 1, 1.5 μg), IP with anti-HA; or 0.5 μg GFP-STING, 0.5 μg mCherry-IKKε and increasing pTBK1 (0.5, 1, 1.5 μg), IP with anti-mCherry; 48 h; Western blot
[6] = target: mCherry-pSTING (porcine STING) (porcine) (UniProt B8XX90); experiment: co-IP; HEK293T cotransfected with the two tagged proteins for 48 h (legends; the methods say 24 h); lysis buffer 50 mM Tris pH 7.2, 150 mM NaCl, 1% sodium deoxycholate, 1% Triton X-100; antibody overnight at 4 °C, protein A/G beads 2 h; co-IP and reverse co-IP; Western blot
[7] = target: endogenous pSTING (porcine STING) (porcine (endogenous in 3D4/21)) (UniProt B8XX90); experiment: co-IP; endogenous proteins of 3D4/21 cells stimulated with or without 2′3′-cGAMP (2 μg/ml); IP with anti-STING antibody (pIKKε–pSTING) or TBK1 antibody (pSTING–pTBK1)
[8] = target: pSTING-HA (porcine STING) (porcine) (UniProt B8XX90); experiment: co-IP; HEK293T cotransfected with the two tagged proteins for 48 h (legends; the methods say 24 h); lysis buffer 50 mM Tris pH 7.2, 150 mM NaCl, 1% sodium deoxycholate, 1% Triton X-100; antibody overnight at 4 °C, protein A/G beads 2 h; co-IP and reverse co-IP; Western blot

Molecule: pSTING-HA (porcine STING) (from UniProt B8XX90 1-378)
binding [2]: binds

Molecule: mCherry-pSTING (porcine STING) (from UniProt B8XX90 1-378)
binding [3]: binds | binding [4]: binds

Molecule: GFP-pSTING (191–338 amino acids) (from UniProt B8XX90 191-338) (domain or fragment)
binding [1]: no binding

B2: endogenous pIKKε (porcine IKKε) (protein, UniProt M9MMN5 1-718)
chain: T1 sequence
binding [7]: binds

Now from value to molecule:

binding [1]: no binding
Molecule: GFP-pSTING L373A (from UniProt B8XX90 1-378)

binding [5]: binds
Molecule: GFP-pSTING (porcine STING) (from UniProt B8XX90 1-378)

binding [6]: binds
B1: pIKKε-GFP (porcine IKKε) (protein, UniProt M9MMN5 1-718)
chain: T1 sequence

binding [8]: binds
B3: pIKKε-Myc (porcine IKKε) (protein, UniProt M9MMN5 1-718)
chain: T1 sequence
